Measured values taken from the supplement of paper PMC11417369.
The other results are listed elsewhere or left out.

What follows are sequences tested on PfSIP2 AP2 domain 1 (GST-tagged) (assay: gcPBM binding intensity (ln(normalized median fluorescence intensity)); higher = stronger DNA binding).
How it was run: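 GST-fused DNA-binding domains of P. falciparum, expressed in E. coli, were applied at about 25 μg on average for 1 h to an Agilent 4 × 180k array of primer-extended double-stranded 36-bp intergenic genomic probes and negative controls. Binding intensity is the highest Masliner-normalised natural-log median intensity across replicate spots of either probe orientation, measured with Alexa488 anti-GST antibody and a 488 nm scan.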

**Q.** For “TTTTTCTTACATGAGTGTACACACTTTTTTTCAGAA [XGTACX_site138]”, which “gcPBM binding intensity (ln)” value is on record?
**A.** The value was 7.74.

**Q.** With “TTATATGTATGGAGGTTTTTGTATATAGATATATAG [CACACA_negctrl_site177]” as the sequence, how does the “gcPBM binding intensity (ln)” value read?
**A.** The value was 6.91.

**Q.** How did the “gcPBM binding intensity (ln)” value turn out when “AATATAAACAAACACACACACATATATATATATATT [CACACA_site5592]” was run?
**A.** Its value is 7.41.

**Q.** How did the “gcPBM binding intensity (ln)” value turn out when “ATGTCATATAATAGTACACACATGAAAATATAAATA [CACACA_site3215]” was run?
**A.** The value was 7.15.

**Q.** Which “gcPBM binding intensity (ln)” value does the source give for “AAAAAAAAAAAAAATAGTACAATACCCAAATATAAC [XGTACX_site6684]” here?
**A.** The value was 7.3.

**Q.** “ATAAAAAAAGGACACACACACATATATTTATTTATA [CACACA_site7438]” was tested. Which “gcPBM binding intensity (ln)” value did it give?
**A.** The value was 6.9.

**Q.** “ACTATTAAAATGAATACACACAAATATAAAAATATA [CACACA_site4145]” was tested. Which “gcPBM binding intensity (ln)” value did it give?
**A.** The value was 7.07.

**Q.** For “GGTAGGGATTATACCACACACACATACACATAAATA [CACACA_site3179]”, which “gcPBM binding intensity (ln)” value is on record?
**A.** The value was 7.11.

**Q.** For “ACGCTACATAAATACGTGCACATCTTTTTGTGTATA [GTGCAC_site9675]”, which “gcPBM binding intensity (ln)” value is on record?
**A.** The value was 9.17.

**Q.** For “ATTTATTAATATCCCAGTACTCATGGGGAATAATGA [XGTACX_site4014]”, which “gcPBM binding intensity (ln)” value is on record?
**A.** Its value is 6.92.

**Q.** Which “gcPBM binding intensity (ln)” value does the source give for “TTGTGTAAAGGTATTATTGTATTATTCAAAATAAAA [XGTACX_negctrl_site167]” here?
**A.** The value was 6.97.

**Q.** With “AATATATAATATATATGTACTTATATATAAAAGATA [XGTACX_site7635]” as the sequence, how does the “gcPBM binding intensity (ln)” value read?
**A.** The value was 7.75.

**Q.** Which “gcPBM binding intensity (ln)” value does the source give for “TGGAGGAACCTCATATGTACGTATAAATATATATTT [XGTACX_site5603]” here?
**A.** Its value is 7.17.

**Q.** For “CATATATATTTGTTCACACACACACTAATAAAAAAA [CACACA_site8787]”, which “gcPBM binding intensity (ln)” value is on record?
**A.** The value was 7.32.

**Q.** How did the “gcPBM binding intensity (ln)” value turn out when “TTAAAGCACCCATGCACACACACAAAGGAAAAGAAA [CACACA_site233]” was run?
**A.** The value was 9.69.

**Q.** For “TGATAAATTAAAAATTGTACTATTATAATAATATAT [XGTACX_site6615]”, which “gcPBM binding intensity (ln)” value is on record?
**A.** Its value is 6.93.

**Q.** For “TTTATATAAATTTATTCACACAACTAATTTTTTAAA [CACACA_site4848]”, which “gcPBM binding intensity (ln)” value is on record?
**A.** Its value is 7.02.

**Q.** “ACAATAAACATATATACACACACAAAAAAAAAAACA [CACACA_site8033]” was tested. Which “gcPBM binding intensity (ln)” value did it give?
**A.** Its value is 7.07.

**Q.** For “ATCAAATAGAGACACACACACCTAAACATAAAAGAA [CACACA_site7321]”, which “gcPBM binding intensity (ln)” value is on record?
**A.** Its value is 7.05.

**Q.** For AATATTTTATTTTGGGTGCAAAAGAATATTATTTCA, which “gcPBM binding intensity (ln)” value is on record?
**A.** The value was 10.4.

**Q.** For “GTGTGAAACATAAACACACACAAAAAGAAAAAATAG [CACACA_site1227]”, which “gcPBM binding intensity (ln)” value is on record?
**A.** Its value is 6.91.

**Q.** “TGATATTTACAAATATTAAGATCTTATATTTTTTTT [CACACA_negctrl_site617]” was tested. Which “gcPBM binding intensity (ln)” value did it give?
**A.** Its value is 6.85.

**Q.** For “AATATAAATATTAAAACACACATAAAAAGATTATTA [CACACA_site1764]”, which “gcPBM binding intensity (ln)” value is on record?
**A.** The value was 6.8.

**Q.** For “TATATATATATATTACGTACATAGAACTTTATAAAA [XGTACX_site4485]”, which “gcPBM binding intensity (ln)” value is on record?
**A.** The value was 8.86.

**Q.** For “GTATATATATATATATGTACTAATTAGTAGTTTACG [XGTACX_site6274]”, which “gcPBM binding intensity (ln)” value is on record?
**A.** Its value is 7.46.

**Q.** Which “gcPBM binding intensity (ln)” value does the source give for “TATTACATAATACAAAGTACATATATTTTTTTATTT [XGTACX_site7061]” here?
**A.** The value was 7.02.

**Q.** How did the “gcPBM binding intensity (ln)” value turn out when “ATATTTATACATAAATGTACTTTTATATATTTAATA [XGTACX_site3020]” was run?
**A.** Its value is 6.99.

**Q.** “AATATTATAAATGATACACACTTAAAATACACGCAC [CACACA_site7305]” was tested. Which “gcPBM binding intensity (ln)” value did it give?
**A.** The value was 7.82.

**Q.** How did the “gcPBM binding intensity (ln)” value turn out when “AGCACATATATATTATGTACATATAACTTCCCAGTG [XGTACX_site7095]” was run?
**A.** The value was 7.05.

**Q.** With “CGATACTTTAGGTGTACACAAATATACATGAATGAG [CACACA_site5189]” as the sequence, how does the “gcPBM binding intensity (ln)” value read?
**A.** Its value is 7.76.

**Q.** How did the “gcPBM binding intensity (ln)” value turn out when “AAAAAAAAGGAAATAACACACATGTATTTATTTATA [CACACA_site4966]” was run?
**A.** Its value is 6.7.

**Q.** With “TTATTATAAATGTTTTGTACGTACATCCGAAAATAA [XGTACX_site2175]” as the sequence, how does the “gcPBM binding intensity (ln)” value read?
**A.** Its value is 7.47.

**Q.** Which “gcPBM binding intensity (ln)” value does the source give for “TATAATCATATTAAGGGTACATATGTGTAAATATTT [XGTACX_site6018]” here?
**A.** Its value is 7.1.

**Q.** With “CTTTAAAACCGGTACTGTACACATAGTATTATTATC [XGTACX_site2602]” as the sequence, how does the “gcPBM binding intensity (ln)” value read?
**A.** The value was 7.09.

**Q.** Which “gcPBM binding intensity (ln)” value does the source give for “ATAATAATAATATAACCAAGGAAATATAATATTTGT [XGTACX_negctrl_site485]” here?
**A.** Its value is 7.01.

**Q.** Which “gcPBM binding intensity (ln)” value does the source give for “AAAAAAAAATTATTCACACATATATATATATATATA [CACACA_site5579]” here?
**A.** Its value is 9.38.

**Q.** “GAACCATAAGGAACGACACACAAAGATAAATAAATA [CACACA_site3472]” was tested. Which “gcPBM binding intensity (ln)” value did it give?
**A.** Its value is 7.02.

**Q.** “AAAAATAAAAAAAGCACACACATATATATATATATA [CACACA_site1885]” was tested. Which “gcPBM binding intensity (ln)” value did it give?
**A.** Its value is 9.8.

**Q.** With “AAATTTGCTTTTATTTTACACACTTGCTCCTGTTGT [CACACA_site8276]” as the sequence, how does the “gcPBM binding intensity (ln)” value read?
**A.** Its value is 6.86.

**Q.** Which “gcPBM binding intensity (ln)” value does the source give for “ATAATATTTTAATGCACACACACAAAAAAAAAAAAA [CACACA_site2891]” here?
**A.** Its value is 7.37.

**Q.** How did the “gcPBM binding intensity (ln)” value turn out when “AAACAATCTAAAAGTAGTACAATAAAAATATATATA [XGTACX_site5607]” was run?
**A.** Its value is 7.52.

**Q.** For “TTATTGCATTGTTTTTATAAAAAAAAAAAAAAAATT [XGTACX_negctrl_site104]”, which “gcPBM binding intensity (ln)” value is on record?
**A.** Its value is 6.9.

**Q.** With “TATTTATTGTGATACTTATATTACTTAATGATTAAA [CACACA_negctrl_site676]” as the sequence, how does the “gcPBM binding intensity (ln)” value read?
**A.** The value was 6.87.

**Q.** Which “gcPBM binding intensity (ln)” value does the source give for “TAATTATGCAGACACACACACACACCCAACTAAAAA [CACACA_site2569]” here?
**A.** The value was 7.27.

**Q.** For “CTATTTCATGGACACACACACACAAACAAACATATA [CACACA_site4696]”, which “gcPBM binding intensity (ln)” value is on record?
**A.** Its value is 7.6.

**Q.** Which “gcPBM binding intensity (ln)” value does the source give for “ATATATTATATAAAGTGTACAAAAAAAATATATAAA [XGTACX_site8065]” here?
**A.** The value was 7.12.

**Q.** For “ATTAATAAGAAATATACACACATGGATAAATACATA [CACACA_site1872]”, which “gcPBM binding intensity (ln)” value is on record?
**A.** The value was 6.81.

**Q.** “TTTCTTGCTACATGAAGTACACTTTCTATGACTCGT [XGTACX_site5583]” was tested. Which “gcPBM binding intensity (ln)” value did it give?
**A.** The value was 7.07.

**Q.** Which “gcPBM binding intensity (ln)” value does the source give for “ATATATATTTTATTCACACATAAGATTATAAAACAT [CACACA_site5369]” here?
**A.** The value was 7.02.

**Q.** For “TATGATATAATTATGTGTACACAATTTTTTTTTTTT [XGTACX_site1084]”, which “gcPBM binding intensity (ln)” value is on record?
**A.** Its value is 7.48.

**Q.** With “TGTGTTCAGTATTGCACACACACAACAAAATAAAAA [CACACA_site8017]” as the sequence, how does the “gcPBM binding intensity (ln)” value read?
**A.** Its value is 7.32.

**Q.** For “AATTTTAAGAGCTATACATGCACTTCATAAAAAGTG [TGCATGCA_site180]”, which “gcPBM binding intensity (ln)” value is on record?
**A.** The value was 8.45.

**Q.** Which “gcPBM binding intensity (ln)” value does the source give for “ATAATAAAAAAAAATGCACACATATATATATATATA [CACACA_site8766]” here?
**A.** The value was 9.29.

**Q.** For “AATATATATATATATACACACACACCGATATATATA [CACACA_site8158]”, which “gcPBM binding intensity (ln)” value is on record?
**A.** Its value is 7.64.

**Q.** For “TAACAATTAATAAAAGGTACACTTGAATATGCACCA [XGTACX_site2717]”, which “gcPBM binding intensity (ln)” value is on record?
**A.** Its value is 10.5.

**Q.** How did the “gcPBM binding intensity (ln)” value turn out when “TTAATATTTAGACATGCATGCTAATTACTATATATA [TGCATGCA_site27]” was run?
**A.** Its value is 6.96.

**Q.** Which “gcPBM binding intensity (ln)” value does the source give for “TTATAAATATAAAAATGTACAGAAAAAAAAAATAAA [XGTACX_site863]” here?
**A.** Its value is 7.15.
